Results published in paper PMC4615246 (Nucleus, 2015).

Columns and labels:
LacI-CFP-Nup155 = target: T1, LacI-CFP-Nup155 (human, UniProt O75694 1-1391); assay: LacI/LacO array recruitment in cells
T1 sequence: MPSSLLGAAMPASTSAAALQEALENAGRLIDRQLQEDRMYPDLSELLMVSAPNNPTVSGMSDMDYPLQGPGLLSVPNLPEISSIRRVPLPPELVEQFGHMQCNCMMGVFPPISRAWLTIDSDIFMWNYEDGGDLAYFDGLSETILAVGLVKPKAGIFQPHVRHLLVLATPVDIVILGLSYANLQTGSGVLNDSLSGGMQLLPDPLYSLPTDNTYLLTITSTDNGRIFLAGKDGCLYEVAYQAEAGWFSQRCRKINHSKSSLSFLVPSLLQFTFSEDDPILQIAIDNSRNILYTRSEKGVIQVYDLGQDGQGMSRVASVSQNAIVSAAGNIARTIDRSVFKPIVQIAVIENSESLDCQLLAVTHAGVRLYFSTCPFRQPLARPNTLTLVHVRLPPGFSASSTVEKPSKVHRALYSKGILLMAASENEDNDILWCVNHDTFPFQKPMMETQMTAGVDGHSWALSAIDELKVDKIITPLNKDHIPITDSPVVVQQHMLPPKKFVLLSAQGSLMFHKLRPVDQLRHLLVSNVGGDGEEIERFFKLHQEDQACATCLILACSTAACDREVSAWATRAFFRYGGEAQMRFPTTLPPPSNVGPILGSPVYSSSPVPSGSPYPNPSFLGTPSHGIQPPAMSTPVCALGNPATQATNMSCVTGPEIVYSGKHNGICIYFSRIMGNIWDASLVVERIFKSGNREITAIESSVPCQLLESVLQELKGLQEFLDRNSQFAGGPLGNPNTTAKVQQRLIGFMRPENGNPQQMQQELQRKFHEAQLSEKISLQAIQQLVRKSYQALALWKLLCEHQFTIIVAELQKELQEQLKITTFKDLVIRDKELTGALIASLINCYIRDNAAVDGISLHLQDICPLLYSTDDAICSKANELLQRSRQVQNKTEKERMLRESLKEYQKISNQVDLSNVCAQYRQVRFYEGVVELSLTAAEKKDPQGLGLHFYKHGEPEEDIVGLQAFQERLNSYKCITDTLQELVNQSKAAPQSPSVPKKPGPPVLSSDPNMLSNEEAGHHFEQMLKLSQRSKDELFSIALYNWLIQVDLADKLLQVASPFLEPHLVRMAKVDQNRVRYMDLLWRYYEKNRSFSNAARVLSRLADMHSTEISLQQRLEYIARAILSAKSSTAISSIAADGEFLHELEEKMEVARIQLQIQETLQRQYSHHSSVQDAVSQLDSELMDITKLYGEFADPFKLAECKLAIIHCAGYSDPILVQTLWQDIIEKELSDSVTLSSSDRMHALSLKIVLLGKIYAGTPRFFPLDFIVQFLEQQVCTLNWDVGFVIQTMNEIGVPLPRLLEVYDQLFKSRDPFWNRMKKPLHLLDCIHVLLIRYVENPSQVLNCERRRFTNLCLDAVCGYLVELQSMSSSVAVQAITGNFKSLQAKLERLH

LacI-CFP-Nup58 = target: T2, LacI-CFP-Nup58 (human, UniProt Q9BVL2 1-599); assay: LacI/LacO array recruitment in cells
T2 sequence: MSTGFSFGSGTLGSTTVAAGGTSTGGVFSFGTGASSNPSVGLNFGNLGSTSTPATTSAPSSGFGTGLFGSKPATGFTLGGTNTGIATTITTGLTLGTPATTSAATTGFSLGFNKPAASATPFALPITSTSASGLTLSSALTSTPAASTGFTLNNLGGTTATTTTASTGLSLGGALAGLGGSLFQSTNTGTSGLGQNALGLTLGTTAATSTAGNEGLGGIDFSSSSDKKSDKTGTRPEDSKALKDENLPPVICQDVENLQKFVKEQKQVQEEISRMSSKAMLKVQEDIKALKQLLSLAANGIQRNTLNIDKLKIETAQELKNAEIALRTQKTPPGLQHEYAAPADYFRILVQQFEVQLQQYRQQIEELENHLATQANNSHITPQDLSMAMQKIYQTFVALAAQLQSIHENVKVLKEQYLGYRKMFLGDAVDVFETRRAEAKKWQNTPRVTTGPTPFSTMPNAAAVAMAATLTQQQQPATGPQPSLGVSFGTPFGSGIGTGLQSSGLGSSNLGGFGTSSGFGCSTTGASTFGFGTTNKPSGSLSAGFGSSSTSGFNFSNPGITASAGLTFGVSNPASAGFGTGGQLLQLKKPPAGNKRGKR

B1: Pom121 (endogenous) (natural protein)
chain: MSPAAAAAGAGERRRPIASVRDGRGRGCGGPARAVLLGLSLVGLLLYLVPAAAALAWLTVGATAAWWGLSREPRGSRPLSSFVRKARHRRPLSSFVRKARHRRTLFASPLAKSTANGNLLEPRTLLEGPDPAELLLMGSYLGKPGPPQPAAAPEGQDLRDRPGRRPPARPAPRSPPPRSPPPRSPPPSPPTHRAHHVYPSLPTPLLRPSRRPSPRDCGTLPNRFVITPRRRYPIHQAQYSCLGVLPTVCWNGYHKKAVLSPRNSR[about 450 residues not shown]KQSFLFGTQNTSPSSPAAPAASSAPPMFKPIFTAPPKSEKEGPTPPGPSVTATAPSSSSLPTTTSTTAPTFQPVFSSMGPPASVPLPAPFFKQTTTPATAPTTTAPLFTGLASATSAVAPITSASPSTDSASKPAFGFGINSVSSSSVSTTTSTATAASQPFLFGAPQASAASFTPAMGSIFQFGKPPALPTTTTVTTFSQSLHTAVPTATSSSAADFSGFGSTLATSAPATSSQPTLTFSNTSTPTFNIPFGSSAKSPLPSYPGANPQPAFGAAEGQPPGAAKPALAPSFGSSFTFGNSAAPAAAPTPAPPSMIKVVPAYVPTPIHPIFGGATHSAFGLKATASAFGAPASSQPAFGGSTAVFFGAATSSGFGATTQTASSGSSSSVFGSTTPSPFTFGGSAAPAGSGSFGINVATPGSSTTTGAFSFGAGQSGSTATSTPFAGGLGQNALGTTGQSTPFAFNVSSTTESKPVFGGTATPTFGLNTPAPGVGTSGSSLSFGASSAPAQGFVGVAPFGSAALSFSIGAGSKTPGARQRLQARRQHTRKK
percent of transfected cells showing colocalization (LacI-CFP-Nup155): 56%
percent of transfected cells showing colocalization (LacI-CFP-Nup58): 14%
